Measured values: PubChem BioAssay AID624417 (National Center for Advancing Translational Sciences (NCATS), 2012)
Screen size: about 410,000 compounds; about 6,400 (1.6%) were called active. The inconclusive results got no clear call from the source; some entries with a clear call stand among them for comparison. The call rests on the fitted dose curve; in most records, active means well fitted inhibition curve with a large enough effect; inconclusive means small, poorly fitted or top-dose-only effect; inactive means no such curve, though single readings can be large or run the other way. No potency is given beside an inconclusive call; the fits are too rough.

target: Glucagon-like peptide 1 receptor (Homo sapiens) (UniProt P43220); test: qHTS of GLP-1 Receptor Inverse Agonists (Inhibition Mode); conditions: HEK293 GLP-1R CRE-luciferase, luminescence, 24 h, GLP-1R form is constitutively active; activity change, negative = inhibition: at 38.3 µM (top of the series) unless noted; further: nearly all actives have a fitted effect of over 55% in size
How it was run: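 HEK293 cells stably co-expressing constitutively active GLP-1R and a cAMP-responsive luciferase reporter were seeded in DMEM with 10% Nu serum, given compounds after 12 h, and incubated 24 h at 37 deg C. Luminescence was then read.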
On the % scale 0 is the no-effect control and ±100 the full control effect; potency means the concentration at half of the fitted maximal effect; tags describe the fitted curve by direction and shape.

UniProt P43220, sequence (P43220 whole entry, looked up): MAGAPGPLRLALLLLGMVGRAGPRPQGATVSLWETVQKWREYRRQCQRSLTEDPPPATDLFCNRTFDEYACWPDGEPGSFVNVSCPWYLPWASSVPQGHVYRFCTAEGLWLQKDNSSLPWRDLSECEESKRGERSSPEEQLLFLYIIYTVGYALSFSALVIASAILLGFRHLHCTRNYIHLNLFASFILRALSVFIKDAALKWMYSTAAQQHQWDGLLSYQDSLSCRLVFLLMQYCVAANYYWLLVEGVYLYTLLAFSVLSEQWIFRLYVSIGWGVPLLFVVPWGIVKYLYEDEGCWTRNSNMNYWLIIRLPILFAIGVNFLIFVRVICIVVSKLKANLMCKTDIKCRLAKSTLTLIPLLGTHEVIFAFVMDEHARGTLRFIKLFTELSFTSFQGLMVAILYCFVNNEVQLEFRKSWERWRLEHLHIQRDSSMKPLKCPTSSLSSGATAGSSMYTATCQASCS

Compound | Potency | activity change, negative = inhibition
O=C(N/N=C/c1cc(Cl)ccc1O)C(=O)Nc1ccccc1OC(F)(F)C(F)F | inconclusive [inhibitor, full curve, poor fit] | 
COc1ccc(CCNc2cc(C)nc3c(-c4ccccc4)c(C)nn23)cc1OC | inconclusive [inhibitor, single point] | 
COc1ccc(OC)c(NC(=O)CSC2=Nc3ccccc3C3=NC(CCC(=O)NCc4ccco4)C(=O)N23)c1 (stereo unspecified) |  | inactive: 6.25%
O=C(C1CCN(Cc2ccc(Cl)cc2)CC1)N1CCN(C(c2ccccc2)c2ccccc2)CC1 | active: 3.98 µM | 
CCOC(=O)N1CCN(c2nc(-c3ccco3)cc(C(F)(F)F)n2)CC1 |  | inactive: -5.01%
CN(C)S(=O)(=O)c1ccc2c(c1)c(=O)c(C(=O)N1CCN(c3cccc(Cl)c3)CC1)cn2C |  | inactive: -14.7%
O=S1(=O)c2ccccc2N(Cc2ccc(Cl)cc2F)c2ccccc21 |  | inactive: 5.23%
COc1cccc(CN2CCN(C(=O)c3cccc4ccccc34)CC2)c1 | inconclusive [inhibitor, partial curve] | 
CC(=O)Nc1ccc(NC(=O)c2ccc(S(=O)(=O)N(C)c3ccccc3)cc2)cc1 | inconclusive [inhibitor, partial curve, poor fit] | 
CCCc1cc(=O)oc2c(C)c(OCC(=O)NCCCn3ccnc3)ccc12 | inconclusive [inhibitor, partial curve, poor fit] | 
Cc1ccc(C)c(Cn2c3ccccc3c3cnn(CC(=O)NCCCN4CCCCC4)c(=O)c32)c1 | inconclusive [inhibitor, partial curve, poor fit] | 
Cc1ccc(S(=O)(=O)N(CC(=O)Nc2ccc(Cl)c([N+](=O)[O-])c2)C2CCCCC2)cc1 | inconclusive [inhibitor, partial curve, poor fit] | 
O=C(NCCC1=CCCCC1)c1c(O)nc2sccn2c1=O | inconclusive [inhibitor, full curve, poor fit] | 
O=C(Cn1cc(/C=N/NC(=O)c2ccccc2Br)c2ccccc21)Nc1ccc(F)cc1 | inconclusive [inhibitor, partial curve, poor fit] | 
CCOc1ccc(CNC(=O)C2CCN(C3=NS(=O)(=O)C(c4ccc(C)cc4)=C3CC)CC2)cc1 | inconclusive [inhibitor, single point] | 
CC(=O)N1N=C(c2ccccc2)CC1c1ccccc1[N+](=O)[O-] (stereo unspecified) |  | inactive: 3.77%
CCCCCn1c(=O)[nH]c2cc(C(=O)N3CCN(c4ccc(C(C)=O)cc4)CC3)ccc2c1=O | inconclusive [inhibitor, full curve, poor fit] | 
CC(=O)Nc1nonc1-c1nnc(SCC(=O)Nc2ccccc2Cl)n1C |  | inactive: 10.5%
COc1cc(NC(=O)c2cc(-c3ccccc3O)no2)cc(OC)c1OC | inconclusive [inhibitor, full curve] | 
COc1ccc(N(C(=O)C2COc3ccccc3O2)C(C(=O)NC2CCCCC2)c2ccccc2)cc1OC (stereo unspecified) | inconclusive [inhibitor, single point] | 
COc1ccc(OC)c(/C=N/NC(=O)C(=O)N2CCCC2)c1 | inconclusive [inhibitor, partial curve, poor fit] | 

Compound | Potency | activity change, negative = inhibition
O=S1(=O)[C@H]2CC3O[C@]2(C[C@@H]3c2ccc(F)cc2)CN1Cc1ccc(Cl)cc1 | inconclusive [inhibitor, single point] | 
O=C1c2ccccc2C(=O)N1N(c1ccccc1)c1ccccc1 | inconclusive [inhibitor, single point] | 
O=C(NC(NNc1ccc([N+](=O)[O-])cc1)(C(F)(F)F)C(F)(F)F)c1ccccc1Cl |  | inactive: 0%
O=C(Nc1ccccc1C(=O)NCCc1ccccc1)c1ccco1 | inconclusive [inhibitor, partial curve] | 
Cc1ccc(CNC(=O)C(OC(=O)c2cccs2)C(C)C)cc1 (stereo unspecified) | inconclusive [inhibitor, single point] | 
CCN(CC)c1ccc2c(C)c(Cl)c(=O)oc2c1 |  | inactive: -5.62%
CC(=O)OCc1cnc(C)c2oc(=O)c(C(=O)Nc3ccc(F)cc3C)cc12 |  | inactive: 5.73%
Cc1cccc(N2CCN(c3nc4ccccc4c4nc(-c5ccccc5)nn34)CC2)c1C |  | inactive: 1.31%
NC(=NCCc1c[nH]c2ccccc12)NC(=O)c1ccc(Cl)cc1 | inconclusive [inhibitor, partial curve, poor fit] | 
Oc1cccc2c(NC(=S)Nc3ccc(SC(F)F)cc3)cccc12 | inconclusive [inhibitor, single point] | 
Cc1cc(C)n(C(=O)c2ccc([N+](=O)[O-])cc2[N+](=O)[O-])n1 |  | inactive: 0.149%
Cc1cccc(C)c1OCCCCN1CCNCC1 | inconclusive [inhibitor, partial curve, poor fit] | 
Cc1nn(-c2ccccc2)c2c1C1(C(=O)N(C)c3ccccc31)C(C#N)=C(N)O2 (stereo unspecified) |  | inactive: 0%
COc1ccc2nc(C)cc(NCc3ccc(F)cc3)c2c1 | inconclusive [inhibitor, partial curve, poor fit] | 
COc1ccccc1C(=O)Nc1ccccc1N1CCN(C(=O)c2ccc(Cl)cc2)CC1 | inconclusive [inhibitor, partial curve, poor fit] | 
Cc1ccc(N(NC(=O)C(O)(c2ccccc2)c2ccccc2)C(=O)CCl)cc1 | inconclusive [inhibitor, single point] | 
Cc1ccccc1N1CCN(CCC(=O)Nc2ccc(F)cc2)CC1 | inconclusive [inhibitor, single point] | 
Clc1cccc(-c2nnc(CN3CCN(c4ccccn4)CC3)o2)c1 |  | inactive: 18.8%
CCOc1ccc(S(=O)(=O)N(C)c2ccc(OCC(=O)NCC3CCCCC3)cc2)cc1 | inconclusive [inhibitor, single point] | 
COC(=O)c1c(SCC(=O)Nc2cccc(C(F)(F)F)c2)[nH]c2ccccc2c1=O | inconclusive [inhibitor, partial curve] | 
